The text below walks through data of patent US9585897B2, “Anti-infective hydroxy-phenyl-benzoates and methods of use” (priority 2008, dated 2017).

The experiment deals with S. aureus sarA P1. Briefly: In vivo GFP::promoter fusion assay of sarA P1 in IE vegetations. As to conditions: 24 hr after single iv dose of 8 mg/kg aspirin. Here is the method:
Giemsa-staining and fluorescence analysis of P1:GFPuvr S. aureus constructs were performed on valve vegetations excised from rabbits with IE 24 hr following no treatment (control) or a single iv dose of 8 mg/kg aspirin. FIGS. 6A and 6B—respective fluorescence and Giemsa-stains in control animals; FIGS. 6C and 6D—fluorescence or Giemsa stains of aspirin-treated animals.

Take `CC(=O)Oc1ccccc1C(=O)O` [aspirin, acetylsalicylic acid]: the “sarA P1 expression within vegetations” value is given as “marked reduction”. Further, the “sarA P1 expression within vegetations” value (listed as Aspirin) is on record as “suppressed”.
